Test results: PubChem BioAssay AID485341 (National Center for Advancing Translational Sciences (NCATS), 2010)
The campaign covered roughly 330,000 compounds. About 1,700 (0.52%) were called active. Inconclusive results, whose numbers are uncertain, are shown with a selection of clear calls. Calls follow the shape of the dose curve; as a rule, active = well fitted inhibition curve with a large enough effect; inconclusive = small, poorly fitted or top-dose-only effect; inactive = no such curve, though single readings can be large or run the other way. Where the call is inconclusive, the potency comes from a doubtful curve fit.

Target: Beta-lactamase (Escherichia coli (strain K12)) (UniProt P00811)
Assay: qHTS Inhibitors of AmpC Beta-Lactamase (assay without detergent); also: nearly all actives have a fitted effect of over 20% in size;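 as to activity change, negative = inhibition: plate controls were no compound for no effect and no enzyme for full effect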
Settings: AmpC nitrocefin hydrolysis, absorbance 480 nm, 0.0001% Triton; activity change, negative = inhibition: at 57.1 µM (top of the series) unless noted
Outline: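 AmpC (5.3 nM in the dispensed reagent) in 20 mM phosphate pH 7.0 with 0.01% (detergent screen) or 0.0001% Triton X-100 was preincubated with compounds for 15 min at room temperature. Nitrocefin was then added from an 800 uM solution, and hydrolysis was followed at 480 nm.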
Potency is read from the fitted curve at half-maximal effect; tags tell the direction and shape of the fitted curve.

Chain of UniProt P00811 (P00811 whole entry, looked up): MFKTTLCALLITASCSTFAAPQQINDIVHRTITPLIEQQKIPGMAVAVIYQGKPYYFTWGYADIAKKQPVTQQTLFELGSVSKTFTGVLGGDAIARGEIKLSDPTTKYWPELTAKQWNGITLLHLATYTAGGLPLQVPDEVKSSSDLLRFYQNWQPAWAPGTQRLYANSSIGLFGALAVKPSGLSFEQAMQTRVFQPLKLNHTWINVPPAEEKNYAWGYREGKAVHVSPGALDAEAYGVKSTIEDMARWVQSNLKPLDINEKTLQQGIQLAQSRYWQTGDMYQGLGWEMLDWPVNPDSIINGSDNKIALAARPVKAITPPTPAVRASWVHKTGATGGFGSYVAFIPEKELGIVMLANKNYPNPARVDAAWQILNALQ

| Compound | Potency | activity change, negative = inhibition |
| --- | --- | --- |
| CCCn1c(SCC(=O)N2CCc3ccccc3C2)nc(O)cc1=O | inconclusive: 8.91 µM [inhibitor, single point] | – |
| CCSc1nc2c(sc3nc(C)cc(C)c32)c(=O)[nH]1 | inconclusive: 0.282 µM [inhibitor, full curve, poor fit] | – |
| Oc1c(Br)cc(Br)c(/C=N/n2c(-c3ccccc3)n[nH]c2=S)c1Br | inconclusive: 7.94 µM [inhibitor, partial curve] | – |
| CCOc1ccc(NC(=S)NC(=O)c2c(Br)cnn2C)c([N+](=O)[O-])c1 | inconclusive: 31.6 µM [inhibitor, single point] | – |
| O=C(Nc1ccccc1C(=O)NC1CC1)c1ccc([N+](=O)[O-])o1 | – | inactive: -27.6% |
| Cc1[nH]c2ccccc2c1/C=N/Nc1nc(Nc2ccc(F)cc2)nc(N2CCOCC2)n1 | inconclusive: 5.62 µM [inhibitor, single point] | – |
| CCOc1ccc(Oc2ccc(S(=O)(=O)N3CCOCC3)cc2NC(=O)CCNC(C)=O)cc1 | inconclusive: 39.8 µM [inhibitor, single point] | – |
| O=C(Nc1ccc(Cc2ccncc2)cc1)c1ccc(Br)o1 | inconclusive: 6.31 µM [inhibitor, single point] | – |
| CC(Oc1ccc(Br)cc1)C(=O)N(C)CC(=O)Nc1ccc(N2CCOCC2)cc1 (centres undefined) | inconclusive: 28.2 µM [inhibitor, single point] | – |
| CC1(C)C=C(c2ccc(C=O)s2)CC(C)(C)N1 | inconclusive: 5.62 µM [inhibitor, partial curve, poor fit] | – |
| O=C(Nc1ncc(Cc2cccc(C(F)(F)F)c2)s1)C1CCCO1 (centres undefined) | – | inactive: 27.3% |
| CCOC(=O)c1c(NC(=O)C2=C(C)NC(=S)NC2c2ccc(CC)cc2)sc(C)c1C (centres undefined) | active: 12.6 µM | – |
| CN(C)CCCN(C(=O)CCOc1ccccc1)c1nc2c(F)cccc2s1 | – | inactive: -39.4% |
| COc1cccc(C(=O)NCCCNC(=O)c2cccc(OC)c2)c1 | – | inactive: -9.24% |
| CC1=C(C(=O)NCCCOC(C)C)C2(CCC(C)CC2)OC1=O (centres undefined) | inconclusive: 2.51 µM [inhibitor, full curve, poor fit] | – |
| O=C(NNC(=O)C1CCN(Cc2cccc(F)c2)CC1)c1cccc(Cl)c1 | inconclusive: 8.91 µM [inhibitor, single point] | – |
| CCN(CC)c1ccc(C2C(C(=O)OCCOC)=C(C)NC3=C2C(=O)CCC3)cc1 (centres undefined) | inconclusive: 6.31 µM [inhibitor, single point] | – |
| O=C(c1cc(-c2cccs2)on1)N1CCOCC1 | – | inactive: -10.8% |
| FCCCOc1ccc(-c2nccc(-c3ccc(Cl)cc3)n2)cc1 | active: 0.112 µM | – |
